Results published in PMC4336329 (PLoS ONE, 2015).
Among all 310,000 compounds or so, about 14,000 (4.5%) showed an effect of 50% or more. The effect is printed as a negative number. The list shows a part of the results.

These molecules were tested against human ether-à-go-go-related gene (hERG) potassium channel (human, UniProt Q12809) (assay: primary screen, population patch clamp on CHO cells stably expressing hERG).
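Note: peak tail current of the secondary pulse compared with the same well before compound.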

Chain of human ether-à-go-go-related gene (hERG) potassium channel (Q12809 whole entry, looked up): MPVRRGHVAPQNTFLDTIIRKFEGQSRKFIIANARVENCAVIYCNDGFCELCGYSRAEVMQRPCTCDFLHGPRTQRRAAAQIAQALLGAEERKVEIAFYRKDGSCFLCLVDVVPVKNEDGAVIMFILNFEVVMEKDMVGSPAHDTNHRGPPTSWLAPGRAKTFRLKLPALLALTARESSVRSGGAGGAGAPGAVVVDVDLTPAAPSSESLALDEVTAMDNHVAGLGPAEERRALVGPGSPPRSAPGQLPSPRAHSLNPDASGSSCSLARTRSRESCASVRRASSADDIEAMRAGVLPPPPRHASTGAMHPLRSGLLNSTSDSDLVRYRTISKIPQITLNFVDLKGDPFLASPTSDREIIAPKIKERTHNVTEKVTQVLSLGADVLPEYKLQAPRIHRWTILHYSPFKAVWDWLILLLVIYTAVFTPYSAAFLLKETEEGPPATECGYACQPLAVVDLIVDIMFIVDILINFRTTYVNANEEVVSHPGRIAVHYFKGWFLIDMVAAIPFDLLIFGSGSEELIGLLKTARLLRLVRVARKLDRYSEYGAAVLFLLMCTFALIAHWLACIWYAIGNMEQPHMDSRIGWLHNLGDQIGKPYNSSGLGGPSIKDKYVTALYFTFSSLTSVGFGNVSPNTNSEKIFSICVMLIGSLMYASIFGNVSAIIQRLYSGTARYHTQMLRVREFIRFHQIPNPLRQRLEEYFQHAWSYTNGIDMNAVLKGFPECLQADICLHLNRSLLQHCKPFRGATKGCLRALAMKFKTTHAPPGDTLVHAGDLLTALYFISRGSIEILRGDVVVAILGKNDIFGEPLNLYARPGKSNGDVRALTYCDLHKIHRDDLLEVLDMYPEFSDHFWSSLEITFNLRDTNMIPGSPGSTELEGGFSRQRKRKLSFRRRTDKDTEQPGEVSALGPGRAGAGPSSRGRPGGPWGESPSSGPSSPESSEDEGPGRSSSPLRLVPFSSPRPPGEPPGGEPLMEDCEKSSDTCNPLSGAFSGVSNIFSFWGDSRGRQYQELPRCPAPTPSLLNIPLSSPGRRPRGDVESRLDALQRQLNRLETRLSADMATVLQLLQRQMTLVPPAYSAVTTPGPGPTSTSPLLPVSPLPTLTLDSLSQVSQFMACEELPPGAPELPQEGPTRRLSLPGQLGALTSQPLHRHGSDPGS

| Structure (SMILES) | hERG current change (%, negative = inhibition) at 10uM |
| --- | --- |
| Cc1ccccc1-c1nc(CS(=O)(=O)CC(=O)NC2CCCCC2C)c(C)o1 (stereo not shown) | -9.77% |
| CCN(CC)S(=O)(=O)c1ccc(OCC2CCCCO2)c([N+](=O)[O-])c1 (stereo not shown) | -12.6% |
| COc1cccc(NC(=O)CN(C)C(=O)c2ccc3c(c2)CC(c2ccccc2)OC3=O)c1 (stereo not shown) | -66.9% |
| COc1ccc(C(=O)COC(=O)CNS(=O)(=O)c2ccc(C)cc2)cc1 | 3.56% |
| COC(=O)c1c(-c2ccc(OC)cc2)oc2ccc(-c3cc(OC)c(OC)c(OC)c3)cc12 | 8.8% |
| CC(NCC(O)COc1ccccc1)C1COc2ccccc2O1 (stereo not shown) | -46.7% |
| COc1ccc2ccccc2c1/C=N/Nc1ccc(Cl)c(C(=O)O)c1 | 15.8% |
| COc1ccccc1C(=O)NC1CCCc2ccccc21 (stereo not shown) | -2.04% |
| Cc1ccc(-c2noc(C3CCCN(C(=O)c4ccc(F)cc4F)C3)n2)cc1 (stereo not shown) | -28.9% |
| CNC(=O)c1ccc(OCc2ccccc2)c(OC)c1 | 3.11% |
| Cc1cc(C(=O)Nc2ccc(S(=O)(=O)Nc3onc(C)c3C)cc2)c(C)o1 | 4.88% |
| C/C(=N\NC(=O)c1nnn(-c2nonc2N)c1CN1CCCCCC1)c1ccc(Br)cc1 | 24.6% |
| O=C(CCSc1ccccc1)N1CCCC1 | 10.9% |
| Cc1nc(NC(=O)C(Cl)Cl)sc1C(=O)N(C)C | 5.44% |
| COc1cc(NC(=S)N2CCCC(C)C2)cc(OC)c1OC (stereo not shown) | 16.8% |
| Cc1ccsc1C(=O)Nc1nnc(-c2ccco2)o1 | 8.69% |
| O=C(O)[C@H](Cc1ccccc1)NC(=O)N1CCC(Cc2ccccc2)CC1 | -3.47% |
| Cc1nc(NC(N)=S)sc1C(=O)Nc1ccccc1 | 5.18% |
| CC(C)COc1ccc(-c2nn(-c3ccccc3)cc2C(=O)Nc2nccs2)cc1 | 13.9% |
| O=C(CSc1nn(-c2ccc(Cl)cc2)c(=S)s1)N1CCN(C(=O)c2ccco2)CC1 | -70.5% |
| CC(C)CC(=O)Nc1cc2c3c(c1)CCN3C(=O)CC2 | 4.15% |
| O=C(COc1c(Br)cc(Br)cc1Br)N/N=C/c1ccco1 | 14.2% |
| CC(C)(C#N)NC(=O)c1ccco1 | 4.37% |

| Structure (SMILES) | hERG current change (%, negative = inhibition) at 10uM |
| --- | --- |
| CCOc1ccc(Oc2ccc(Cl)cc2N)cc1.Cl | 2.9% |
| COc1ccc(NC(=O)Cn2c(=O)n(-c3ccc(OC)cc3OC)c(=O)c3c(C)c(C)sc32)cc1 | -6.58% |
| Cc1c(N/C=C/C(=O)c2cccs2)c(=O)n(-c2ccccc2)n1C | -11% |
| COc1ccc(N=C2SCC(c3ccc(C)cc3)=NN2CCO)cc1 | -9.63% |
| O=C(CNCC1CCCCC1)Nc1ccc(N2CCCCC2)cc1.O=C(O)C(=O)O | -17.3% |
| Cc1cc(C)n(-c2nc3ccccc3c(=O)n2OCC(N)=O)n1 | 10.4% |
| CCOc1cc(/C=C2\C(=O)NN(c3ccccc3)C2=O)cc([N+](=O)[O-])c1O | 33% |
| Cc1cc(NC(=O)CSc2nc(N)c(NC(=O)c3ccc(F)c(F)c3)c(=O)[nH]2)no1 | 21.4% |
| CNc1nc(N)nc(-c2cc(Cl)ccc2OC)n1 | 18.7% |
| O=C(Nc1ccccc1)Nc1ccc(Oc2cccnc2)nc1 | -4.77% |
| CC1(C)CC2CC(C)(CN2C(=O)NC(=O)c2ccccc2)C1 (stereo not shown) | -7.68% |
| CN(C)c1cccc(C(=O)OCC(=O)NCc2ccco2)c1 | -2.26% |
| Cc1ccc(CSc2nc3ccncc3[nH]2)cc1 | -32.9% |
| COc1ccccc1NC(=O)NCc1ccco1 | 16.1% |
| CC(=O)N1CCN(c2ccc(NC(=O)c3cc4ccccc4o3)cc2)CC1 | -24.5% |
| CCn1c(=O)cc(SCC(=O)Nc2cccc(C)n2)c2ccccc21 | 8.79% |
| COc1ccc(-c2cc(-c3nnc(-c4ccncc4)o3)c3ccccc3n2)cc1 | -1.08% |
| O=C(NCc1ccco1)c1ccc(COc2ccccc2Cl)cc1 | 1.04% |
| COC(=O)c1ccc(Oc2nc(C)cc(Oc3ccccc3)n2)cc1 | -13.8% |
| Cc1cc(C)n2nc(C(=O)NCc3ccco3)cc2n1 | 10.4% |
| COc1ccc(-n2c(SCC(=O)NNC(=O)c3ccccc3C)nnc2-c2ccncc2)cc1 | -7.21% |
| COc1ccc(Cl)cc1NC(=O)CSc1nnc(COc2ccccc2)n1C | -57.3% |
| COc1ccc(-n2nnc3c(=O)n(Cc4cc(C)ccc4C)cnc32)cc1 | -0.607% |

| Structure (SMILES) | hERG current change (%, negative = inhibition) at 10uM |
| --- | --- |
| Cc1ccccc1Nc1nc(N)nc(CN(C)c2ccccc2)n1 | 3.75% |
| CN(C)S(=O)(=O)Oc1ccc(C(=O)Nc2ccc([N+](=O)[O-])cc2)cc1 | -2.27% |
| Nc1nc(-c2ccc(S(=O)(=O)N3CCCCC3)cc2)cs1 | -2.15% |
| CCSC1=C(C#N)C(c2ccc3c(c2)OCO3)C2=C(CCCC2=O)N1 (stereo not shown) | -23.4% |
| O=C(O)c1sccc1S(=O)(=O)N1CCOCC1 | 18.7% |
| Cc1cccc(N(C)C(=O)c2cc3c(=O)[nH]c4ccc(C)cc4c3s2)c1 | 6.58% |
| CS(=O)(=O)N1CCn2c1nc1ccccc12 | 4.59% |
| Cc1ccc(CNS(=O)(=O)c2ccc(Br)s2)cc1 | 15.6% |
| O=C(COc1ccc(-c2nnco2)cc1)NC1CCCc2ccccc21 (stereo not shown) | -19.2% |
| CC(C)(C)c1cnnn1-c1cccc([N+](=O)[O-])c1 | 10.6% |
| CN(Cc1ccc(Cl)cc1)C(=O)CNC(=O)C12CC3CC(CC(C3)C1)C2 | -21% |
| CN(CC(=O)Nc1ccc(N2CCOCC2)cc1)C(=O)C12CC3CC(CC(C3)C1)C2 | 0.894% |
| COC(=O)c1ccc(N2C(=O)CC(N3CCOCC3)C2=O)cc1 (stereo not shown) | -21.5% |
| FC(F)(F)c1ccc(/C=N/N2CCN(Cc3ccccc3)CC2)cc1 | -4.09% |
| O=C(CN(Cc1ccccc1)C(=O)CNS(=O)(=O)c1ccc(F)cc1)NCc1ccco1 | -16.2% |
| CC(=O)c1ccc(OCCCOc2cccc3cccnc23)cc1 | -4.98% |
| O=C(c1ccc(Sc2ccc(F)cc2)c([N+](=O)[O-])c1)N1CCOCC1 | -18.5% |
| Cc1ccc(OCc2cnc(Cl)s2)c(C)c1 | 16.9% |
| CCCCCOc1ccc(NC(=O)c2cc(SC)ccc2Cl)cc1 | 4.24% |
| Cc1cc(NC(=O)CN2CC(C)OC(C)C2)n(-c2nc3ccccc3s2)n1 (stereo not shown) | 16.1% |
| COc1ccc(OC(C)C(=O)N2CCN(c3ccccn3)CC2)cc1 (stereo not shown) | -14.5% |
| COc1cc(C(=O)N2CCN(Cc3ccccc3C(F)(F)F)CC2)cc(OC)c1OC | -5.31% |
| CCCCCOc1ccc(C(=O)OCC(=O)Nc2cc(C)c(C)cc2[N+](=O)[O-])cc1 | 12.7% |

| Structure (SMILES) | hERG current change (%, negative = inhibition) at 10uM |
| --- | --- |
| Cc1onc(-c2ccccc2Cl)c1C(=O)Nc1sc2c(c1C(N)=O)CCC(C)C2 (stereo not shown) | 18.2% |
| Cc1ccc(C(=O)NCCCc2ccccc2)c(Cl)c1 | -0.45% |
| C=CCNC(=O)N1CCC(CO)(Cc2ccc(Cl)cc2)CC1 | -10.3% |
| CCCCc1n[nH]c2c1C(=O)CC(C)(C)C2 | 3.05% |
| CC(C)CC(=O)NS(=O)(=O)c1ccc(N)cc1 | 10.1% |
| CC(=O)c1cccc(OCC(=O)c2cc(C)n(-c3cc(C)on3)c2C)c1 | -13.8% |
| CCOP(=O)(C#CC(C)(C)C)C1(O)CCCCC1 (stereo not shown) | -7.18% |
| Cc1cc(NC(=O)CCC(=O)N(c2ccc(F)cc2)C(C(=O)NC2CCCC2)c2ccc(C)o2)no1 (stereo not shown) | 21.2% |
| C/C(=N\Nc1nc(C)cc(C)n1)c1ccc(C)o1 | 19.9% |
| CSCC(C)N1CCC(n2nccc2NC(=O)c2ccccc2C)CC1 (stereo not shown) | -16.6% |
| COC(=O)C1CCN(S(=O)(=O)CCNC(=O)c2ccc(F)cc2)CC1 | -17.6% |
| Cc1ccc(CNC(=O)c2ccc(N(C)C)cc2)cc1 | 1.61% |
| CC1CCc2c(sc3nc(CN4CCOCC4)nc(N4CCc5ccccc5C4)c23)C1 (stereo not shown) | -8.23% |
| COc1ccc(/C=C2\CCCC3C2=NC(=S)NC3c2ccc(OC)cc2)cc1 (stereo not shown) | -0.449% |
| COC(=O)c1ccc(/C=N/N2C(C)CCCC2C)cc1 (stereo not shown) | 35.7% |
| O=C(Nc1ccc(-n2cccn2)cc1)C1CCN(Cc2ccccn2)CC1 | -16.7% |
| FC(F)(F)c1cc(Oc2ccccc2Cl)nc(-c2ccccn2)n1 | -1.49% |
| Cc1cccc(NC(=O)C2CC(O)CN2C(=O)Oc2ccccc2)c1 (stereo not shown) | 26.3% |
| O=C(Cc1ccccc1)O/N=C1\CCCc2ccccc21 | 21.6% |
| COc1ccc(CCC(=O)NCCS(=O)(=O)N2CCN(c3ccccc3)CC2)cc1 | -36.6% |
| COC(=O)c1c(S(N)(=O)=O)c2ccccc2n1C | 3.31% |
| O=C(CNC(=O)c1ccc(Cl)cc1)c1ccccc1 | -9.6% |
